# The inconclusive results got no clear call from the source; some entries with a clear call stand among them for comparison. For some assays here: No potency is given beside an inconclusive call; the fits are too rough. Activity calls are given as the source filed them. Unless noted, the call rests on the fitted dose curve; in most records, active means well fitted curve in the direction sought with a large enough effect; inconclusive means small, poorly fitted or top-dose-only effect, or another doubt; inactive means no such curve, though single readings can be large; an effect the other way counts as inactive or inconclusive.
# Key:
# [1] = qHTS of pediatric cancer cell lines to identify multiple opportunities for drug repurposing: Primary screen for SJ-GBM2 cells (AID 1347091)
# In short: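 Eight- or eleven-point concentration series, 48 h treatment at 37 degrees C in growth media; readout CellTiter-Glo luminescence. Potency and efficacy were taken from the concentration-response curves.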
# [2] = qHTS of pediatric cancer cell lines to identify multiple opportunities for drug repurposing: Primary screen for SK-N-MC cells (AID 1347093); settings: SK-N-MC viability, CellTiter-Glo luminescence, 48 h; activity change, negative = cytotoxic: at 46 µM (top of the series)
# In short: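 Metabolically active cells were quantified by ATP-dependent luminescence (CellTiter-Glo, 15 min at room temperature) following 48 h treatment. Cells had been plated at 500-1,000 per well and settled for 5 h beforehand.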
# [3] = qHTS of pediatric cancer cell lines to identify multiple opportunities for drug repurposing: Primary screen for Saos-2 cells (AID 1347097); further: nearly all actives have a fitted effect of over 40% in size
# In short: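 Quantitative HTS format: each compound titrated (MIPE 11 points from 0.78 nM, NPC 8 points from 0.59 nM) onto cells plated 5 hours earlier. After 48 h at 37 degrees C, CellTiter-Glo luminescence was recorded.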
# [4] = qHTS of pediatric cancer cell lines to identify multiple opportunities for drug repurposing: Primary screen for LAN-5 cells (AID 1347100)
# In short: (§1)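 Cells (500-1,000/well) in growth media were settled 5 h at 37 degrees C, then given compounds for 48 h. Viability was read as CellTiter-Glo luminescence. Primary runs used MIPE at 11 points (0.78 nM-46 µM) and NPC at 8 points (0.59 nM-46 µM); follow-ups used 11 points.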
# [5] = biological target: Calcium and integrin-binding protein 1 (Homo sapiens) (UniProt Q99828); test: Primary qHTS for Identification of Calcium Integrin Binding Protein 1 (CIB1) Competitor (AID 1508620)
# UniProt Q99828, sequence (Q99828 whole entry, looked up): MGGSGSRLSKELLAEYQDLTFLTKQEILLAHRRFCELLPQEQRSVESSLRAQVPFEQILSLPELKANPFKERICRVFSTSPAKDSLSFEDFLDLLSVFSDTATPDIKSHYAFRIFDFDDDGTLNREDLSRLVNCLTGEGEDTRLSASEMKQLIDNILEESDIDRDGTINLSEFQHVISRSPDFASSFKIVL
# In short: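 Fluorescence polarization competition: CIB1-GST (1 uM final) preincubated with compound 15 min at room temperature, then FITC-labeled alphaIIb peptide (100 nM final) added for another 15 min. Polarization read at Ex 480/Em 540.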
# MKL-2 = test: qHTS assay to identify novel small-molecules to repurpose for Merkel cell carcinoma treatment (AID 1296009); settings: MCC and control cell lines, CellTiter-Glo viability, 72 h; series mostly up to 46 µM; further: nearly all actives have a fitted effect of over 60% in size
# In short: (§2)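 Luminescence from CellTiter-Glo, read 10 min after addition at room temperature, reported viability following a 72 hr, 37 degree celsius treatment with NPC or MIPE compounds in titration; values normalized to plate controls.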
# [6] = biological target: Cytochrome P450 2C9 (Homo sapiens) (UniProt P11712); test: Cytochrome P450 family 2 subfamily C member 9 (CYP2C9) small molecule antagonists: luciferase biochemical (cell-free) qHTS assay (AID 1645842; active means well fitted curve in the direction sought with a large enough effect in the repeat runs; inconclusive means weak or mixed curves; inactive means no such curve, though single readings can be large; an effect the other way counts as inactive or inconclusive; further: nearly all actives have a fitted effect of over 55% in size)
# UniProt P11712, sequence (P11712 whole entry, looked up): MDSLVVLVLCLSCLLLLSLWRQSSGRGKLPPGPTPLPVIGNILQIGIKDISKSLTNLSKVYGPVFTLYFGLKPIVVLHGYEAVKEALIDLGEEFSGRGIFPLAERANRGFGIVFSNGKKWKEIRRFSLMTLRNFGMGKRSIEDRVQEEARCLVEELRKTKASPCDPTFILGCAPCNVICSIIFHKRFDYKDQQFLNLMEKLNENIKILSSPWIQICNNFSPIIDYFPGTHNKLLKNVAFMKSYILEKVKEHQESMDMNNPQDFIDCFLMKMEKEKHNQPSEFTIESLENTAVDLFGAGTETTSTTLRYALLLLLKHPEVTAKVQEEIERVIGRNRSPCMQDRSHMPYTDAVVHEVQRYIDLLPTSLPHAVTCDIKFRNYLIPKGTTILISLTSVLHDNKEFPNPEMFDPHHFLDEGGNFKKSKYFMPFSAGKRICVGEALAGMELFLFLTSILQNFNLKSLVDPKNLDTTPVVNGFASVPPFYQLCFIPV
# In short: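 P450-Glo CYP2C9 system: proluciferin substrate with enzyme in mix containing 0.4% BSA, 10 min at room temperature, then NADPH regeneration solution added and incubated 1 h at 37C. Detection reagent stopped reaction; luminescence read after 20 min as RLU.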
# [7] = qHTS of pediatric cancer cell lines to identify multiple opportunities for drug repurposing: Confirmatory screen for NB-EBc1 cells (AID 1347115); settings: NB-EBc1 neuroblastoma cells, viability (cytotoxicity); activity change, negative = cytotoxic: at 45.9 µM (top of the series);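 further: cells exposed to compound for 48 h before the viability read; nearly all actives have a fitted effect of over 45% in size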
# In short: as §1
# [8] = Quantitative High-Throughput drug screen in 47 multiple myeloma cell lines against the NCATS MIPE library collection: Delta47_JCRB cell viability assay (AID 1918925; further: nearly all actives have a fitted effect of over 45% in size); settings: Delta47 myeloma viability, CellTiter-Glo ATP, 48 h; series mostly up to 45.8 µM
# In short: (§3)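 Luminescent ATP measurement with CellTiter-Glo gives viability, scaled between DMSO-only wells (100%) and media-only wells (0%). Cells, 500 per well, faced library compounds for 48 hours at 37C.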
# [9] = Quantitative High-Throughput drug screen in 47 multiple myeloma cell lines against the NCATS MIPE library collection: H1112_PLB cell viability assay (AID 1918967; further: nearly all actives have a fitted effect of over 30% in size)
# In short: as §3
# [10] = Quantitative High-Throughput drug screen in 47 multiple myeloma cell lines against the NCATS MIPE library collection: MMM1_PLB cell viability assay (AID 1918976); further: nearly all actives have a fitted effect of over 35% in size
# In short: (§4)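 Readout: median RLU from CellTiter-Glo after 5 min at room temperature. Preceding step was 48 h drug treatment of 500 cells/well at 37 °C, 5% CO2, with DMSO-only and media-only control wells.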
# [11] = Quantitative High-Throughput drug screen in 47 multiple myeloma cell lines against the NCATS MIPE library collection: MM1R_ATCC cell viability assay (AID 1918981); further: nearly all actives have a fitted effect of over 35% in size
# In short: as §4
# [12] = Quantitative High-Throughput drug screen in 47 multiple myeloma cell lines against the NCATS MIPE library collection: SKMM1_PLB cell viability assay (AID 1919863); settings: SKMM1 myeloma viability, CellTiter-Glo ATP, 48 h; viability: hits give low values; further: nearly all actives have a fitted effect of over 35% in size
# In short: as §4
# [13] = Quantitative High-Throughput drug screen in 47 multiple myeloma cell lines against the NCATS MIPE library collection: U266_ATCC cell viability assay (AID 1919864); further: nearly all actives have a fitted effect of over 35% in size
# In short: as §4
# [14] = Quantitative High-Throughput drug screen in 47 multiple myeloma cell lines against the NCATS MIPE library collection: PCM6_Riken cell viability assay (AID 1919870); further: nearly all actives have a fitted effect of over 30% in size
# In short: as §4
# [15] = Quantitative High-Throughput drug screen in 47 multiple myeloma cell lines against the NCATS MIPE library collection: RPMI8226_ATCC cell viability assay (AID 1919871); further: nearly all actives have a fitted effect of over 30% in size
# In short: as §4
# [16] = qHTS of pediatric cancer cell lines to identify multiple opportunities for drug repurposing: Primary screen for control Hh wild type fibroblast cells (AID 1347106); further: nearly all actives have a fitted effect of over 55% in size
# In short: as §1
# [17] = Quantitative High-Throughput drug screen in 47 multiple myeloma cell lines against the NCATS MIPE library collection: KMS28BM_JCRB cell viability assay (AID 1919874); further: nearly all actives have a fitted effect of over 35% in size
# In short: as §4
# MCC-13 = test: qHTS assay to identify novel small-molecules to repurpose for Merkel cell carcinoma treatment (AID 1296009); settings: MCC and control cell lines, CellTiter-Glo viability, 72 h; series mostly up to 46 µM; further: nearly all actives have a fitted effect of over 60% in size
# In short: as §2
# Potency means the concentration at half of the fitted maximal effect; tags describe the fitted curve by direction and shape.
structure (smiles),measurement,setting,value
Oc1ccc(Cl)cc1Cc1cc(Cl)ccc1O,Potency,[1],"inconclusive [cytotoxic, single point]"
same,Potency,[2],"inconclusive [cytotoxic, single point]"
same,Potency,[3],active: 8.41 µM
same,Potency,[4],"inconclusive [cytotoxic, single point]"
same,Potency,[5],active: 79.4 µM
COC(=O)C1=C(C)NC(C)=C(C(=O)O[C@@H]2CCCN(Cc3ccccc3)C2)[C@@H]1c1cccc([N+](=O)[O-])c1,Potency,[1],"inconclusive [cytotoxic, single point]"
same,Potency,[2],"inconclusive [cytotoxic, single point]"
same,Potency,[3],"inconclusive [cytotoxic, single point]"
same,Potency,[4],"inconclusive [cytotoxic, single point]"
same,Potency,MKL-2,"inconclusive [inhibitor, partial curve]"
COC(=O)CC1OC(C)C2=C(O)c3c(O)cccc3C(=O)C23OC13 (stereo unspecified),Potency,[5],"inconclusive [inhibitor, partial curve, poor fit]"
COc1ccccc1S(=O)(=O)Nc1ccc2c(c1)CN(C)C(=O)N2,Potency,[6],"inconclusive [inhibitor, partial curve]"
CC(=O)[C@H]1CC[C@H]2[C@@H]3CCC4=CC(=O)CC[C@]4(C)[C@H]3CC[C@]12C,Potency,[1],"inconclusive [cytotoxic, partial curve]"
same,Potency,[3],"inconclusive [cytotoxic, single point]"
same,Potency,[4],"inconclusive [cytotoxic, single point]"
same,Potency,[7],"inconclusive [cytotoxic, partial curve]"
same,Potency,[8],inactive
same,Potency,[9],"inconclusive [cytotoxic, single point]"
same,Potency,[10],"inconclusive [cytotoxic, single point]"
same,Potency,[11],"inconclusive [cytotoxic, single point]"
same,Potency,[12],inconclusive
same,Potency,[13],"inconclusive [cytotoxic, single point]"
same,Potency,[14],"inconclusive [cytotoxic, single point]"
same,Potency,[15],"inconclusive [cytotoxic, partial curve, poor fit]"
same,Potency,MKL-2,"inconclusive [inhibitor, single point]"
COc1cc(CCc2cc(NC(=O)c3ccc(N4C[C@@H](C)N[C@@H](C)C4)cc3)n[nH]2)cc(OC)c1,Potency,[2],"inconclusive [cytotoxic, partial curve, poor fit]"
same,Potency,[16],active: 33.2 µM
same,Potency,[9],active: 11.8 µM
same,Potency,[10],active: 16.6 µM
same,Potency,[12],"inconclusive [cytotoxic, partial curve, poor fit]"
same,Potency,[14],active: 13.2 µM
same,Potency,[17],active: 16.6 µM
CC(C)S(=O)(=O)Nc1ccc(F)c(C(=O)c2c[nH]c3ncc(-c4cccnc4)cc23)c1F,Potency,[6],"inconclusive [inhibitor, single point]"
CCn1c2ccccc2c2cc(Nc3ccnc(NCCCN4CCOCC4)n3)ccc21,Potency,[6],"inconclusive [inhibitor, partial curve, poor fit]"
COc1cc(C)c(Sc2cnc(NC(=O)c3ccc(CNC(C)C(C)C)cc3)s2)cc1C(=O)N1CCN(C(C)=O)CC1 (stereo unspecified),Potency,[1],active: 18.7 µM
same,Potency,[13],active: 23.5 µM
same,Potency,[15],active: 14.8 µM
same,Potency,MCC-13,"inconclusive [inhibitor, single point]"
same,Potency,MKL-2,inactive
Cc1c[nH]c2ncnc(N3CCC(CN)(C(=O)Nc4cccc(OC(=O)N(C)C)c4)CC3)c12,Potency,[5],inactive
C[C@@]12C(=O)OC(=O)[C@@]1(C)C1CCC2O1,Potency,[16],"inconclusive [cytotoxic, full curve]"
same,Potency,[11],active: 2.35 µM
COc1cccc2c1C(=O)c1c(O)c3c(c(O)c1C2=O)C[C@@](O)(C(C)=O)C[C@H]3O[C@H]1C[C@H](N)[C@H](O)[C@H](C)O1,Potency,[2],active: 0.0469 µM
same,Potency,[3],active: 0.264 µM
same,Potency,[4],"inconclusive [cytotoxic, full curve, poor fit]"
same,Potency,[16],"inconclusive [cytotoxic, full curve]"
same,Potency,[7],"inconclusive [cytotoxic, full curve]"
same,Potency,[5],"inconclusive [inhibitor, partial curve]"
same,Potency,[8],active: 0.0418 µM
same,Potency,[9],active: 0.209 µM
same,Potency,[10],active: 0.166 µM
same,Potency,[12],active: 0.166 µM
same,Potency,[14],active: 0.0296 µM
same,Potency,[17],active: 0.0296 µM
same,Potency,MCC-13,active: 0.59 µM
C=C(C)C(=O)OC1CC2(C)OC(=CC2=O)C(=C)CC2OC(=O)C(=C)C12 (stereo unspecified),Potency,[5],"inconclusive [inhibitor, full curve, poor fit]"

# Source: PubChem BioAssay (NCATS)
